According to the supplement of paper PMC3334620:
The full ranking holds about 33,000 sequences; the median of “E-score (-0.5 to 0.5)” is about -0.041, and the highest 2% start at about 0.37. The list shows a part of the results.

target: T1, Ecm22 (UniProt Q05958); assay: PBM E-score (8-mer binding enrichment) (E-score (-0.5 to 0.5)); higher = stronger / more preferred TF binding; most listed sequences are background and not binding sites; conditions: protein concentration: 200 nM; construct: GST-full length
T1 sequence: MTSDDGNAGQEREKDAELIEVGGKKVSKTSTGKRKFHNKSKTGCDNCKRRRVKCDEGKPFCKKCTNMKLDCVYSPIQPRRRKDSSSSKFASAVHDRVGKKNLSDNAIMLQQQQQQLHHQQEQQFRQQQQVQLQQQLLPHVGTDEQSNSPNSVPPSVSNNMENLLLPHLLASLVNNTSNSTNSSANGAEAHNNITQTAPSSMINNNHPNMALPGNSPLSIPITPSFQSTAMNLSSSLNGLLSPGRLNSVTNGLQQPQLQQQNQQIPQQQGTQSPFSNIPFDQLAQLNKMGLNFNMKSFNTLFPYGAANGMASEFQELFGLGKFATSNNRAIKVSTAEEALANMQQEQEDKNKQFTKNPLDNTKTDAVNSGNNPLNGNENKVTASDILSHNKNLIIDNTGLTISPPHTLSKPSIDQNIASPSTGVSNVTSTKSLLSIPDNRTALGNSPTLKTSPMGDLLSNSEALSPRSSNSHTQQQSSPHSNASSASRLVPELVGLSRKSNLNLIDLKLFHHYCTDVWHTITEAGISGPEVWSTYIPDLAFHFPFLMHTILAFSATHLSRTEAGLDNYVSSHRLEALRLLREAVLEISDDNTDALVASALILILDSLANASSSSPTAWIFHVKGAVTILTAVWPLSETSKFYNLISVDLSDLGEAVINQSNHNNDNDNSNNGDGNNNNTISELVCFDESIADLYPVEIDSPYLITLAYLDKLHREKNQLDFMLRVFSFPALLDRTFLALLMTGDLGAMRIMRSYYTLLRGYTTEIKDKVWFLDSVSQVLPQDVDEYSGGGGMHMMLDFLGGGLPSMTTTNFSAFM
Summary of the method: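 Full-length yeast transcription factors or their DNA-binding domains, GST-tagged and expressed with PURExpress, were applied at about 100-200 nM to universal all-10-mer Agilent arrays. These arrays had been made double-stranded by primer extension on fresh or once-stripped slides. Detection used fluorescent anti-GST, normalisation used masliner, and E-scores for ungapped eight-base words pooled with reverse complements came from the Universal PBM Analysis Suite.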

| Sequence | PBM E-score |
| --- | --- |
| AGAAACCG | 0.165 |
| GTCTGATA | -0.126 |
| CCTATTAC | 0.00756 |
| CGCGATCA | 0.179 |
| CTCTCCAC | -0.309 |
| AATCCAAC | -0.124 |
| GCGAATGA | 0.225 |
| ACGTTTCT | 0.094 |
| AGGTGGTA | -0.121 |
| ACGACCCT | 0.331 |
| CACCTCTG | -0.306 |
| CGCTTATA | 0.281 |
| CGACGAAC | 0.177 |
| ACTTTCTG | -0.18 |
| CGTCTTTC | 0.0987 |
| AAGCAAAG | -0.212 |
| CTGTGTCA | -0.223 |
| AGATGCCC | -0.0621 |
| GCAGTAGA | -0.0847 |
| CACTCCAC | 5e-05 |
| AGACTCCT | -0.339 |
| CGCCGGCC | -0.243 |
| ACGCTTCG | 0.262 |
| TCACGAAA | -0.00573 |
| ATCTAGGC | -0.217 |

| Sequence | PBM E-score |
| --- | --- |
| ACCGCGGC | 0.08 |
| CAACCTGC | -0.0911 |
| ACTACCGC | -0.164 |
| AAGGCTCG | 0.176 |
| CCCTTCGG | 0.0505 |
| AGACTCCC | -0.275 |
| TGCCTCAA | -0.187 |
| GCTCGCCA | 0.0906 |
| GCCGCAGA | 0.0154 |
| CATTTCAG | -0.0766 |
| ACTGGTAA | 0.0597 |
| GCTCCCAA | -0.0944 |
| AAACGTGA | 0.119 |
| AGCAGTTG | -0.138 |
| AATGCTTG | -0.129 |
| GTCCGCCA | -0.142 |
| TTGCTAAA | -0.0905 |
| GCAGATGC | 0.0087 |
| CACAGGCG | -0.195 |
| AAGCCAAT | -0.0127 |
| TAACAAAA | -0.0453 |
| GGCCACAC | -0.261 |
| TCGTTGCA | 0.356 |
| ACATTGTA | 0.182 |
| CTCGATTA | 0.233 |

| Sequence | PBM E-score |
| --- | --- |
| CGGGCGTC | 0.0339 |
| CGGAGAGC | -0.0728 |
| ATATGGCC | -0.145 |
| GAAAACTA | 0.0964 |
| AGCTAAAT | 0.0485 |
| AGAGTTGC | -0.115 |
| ACGTGGCT | -0.0377 |
| GGAAACAC | 0.0703 |
| GCAAGGCA | -0.0754 |
| AACACACG | -0.149 |
| TGCACCAA | -0.177 |
| AACGTTGA | 0.0505 |
| CATACACC | -0.059 |
| TATGTTCA | -0.0522 |
| AGGCTGCC | -0.137 |
| CAAGGGTA | -0.0852 |
| ATTGCCTC | -0.0779 |
| CGATTGTA | 0.147 |
| AACCAAGG | 0.0371 |
| GCCTCAAA | -0.0302 |
| AAAGGCGT | -0.175 |
| CTGCAGGC | -0.263 |
| CTATGCCA | -0.308 |
| GCTAAACA | -0.0273 |
| GGTTATAA | -0.139 |

| Sequence | PBM E-score |
| --- | --- |
| CAACCACG | -0.0139 |
| CGAGGATA | 0.23 |
| ATCGTGGA | -0.0151 |
| AAGCCTAT | -0.106 |
| GAAGCGAC | 0.217 |
| AGCCTTCG | 0.0593 |
| CATGCTCA | -0.229 |
| CATGCCTC | -0.0782 |
| CAGGCAGA | -0.091 |
| GTAGCTAA | 0.0391 |
| CTAGCGGC | -0.29 |
| AACTGGTC | -0.0118 |
| AGTAGGCC | 0.00266 |
| GCCGCGTA | 0.213 |
| AGAGGGTG | -0.165 |
| ACCAGCTA | -0.0229 |
| ATGCGCAA | 0.0145 |
| ATTATCCC | 0.0399 |
| CGTGAAAG | 0.0141 |
| ACTGCCCA | -0.0198 |
| CTAAGTGC | -0.102 |
| CCATAGGG | -0.234 |
| AGTCGTCG | 0.01 |
| GTCTGCGA | -0.0165 |
| AGATGATC | 0.122 |

| Sequence | PBM E-score |
| --- | --- |
| CGTCATTC | 0.0928 |
| TGCAAGCA | -0.215 |
| GAACGTTC | 0.277 |
| ATTGCCAC | -0.126 |
| AGCGATTA | 0.0926 |
| GAGCGTAC | 0.208 |
| AGCCGAAG | -0.0638 |
| CCGTGGCC | -0.235 |
| CAGGACCA | -0.27 |
| ATCCATGA | -0.237 |
| CTGAAAAG | -0.0321 |
| CTGAGCAA | -0.0639 |
| CCTTGCAC | 0.0147 |
| AGGCTCCC | -0.294 |
| CAGATCTC | -0.09 |
| AACCAAAC | 0.062 |
| AGCACACC | -0.231 |
| ACCAAAAA | -0.105 |
| ATTTAGGC | -0.223 |
| GACGTCTC | 0.164 |
| GAGTGAAA | -0.0908 |
| ATCTAGGG | -0.0589 |
| TCCAACCA | -0.229 |
| ATCGTGCC | 0.0276 |
| GGTTAAAC | 0.116 |

| Sequence | PBM E-score |
| --- | --- |
| CGTAGTTC | 0.164 |
| ATTTGGGC | -0.13 |
| GCCGAGGC | 0.0887 |
| GCAAACCA | 0.047 |
| CTTAAGGC | -0.0987 |
| ATCGCTTC | 0.12 |
| AGCGAGAT | 0.355 |
| CGAGCACG | 0.194 |
| ATCCTAGG | -0.178 |
| CCTACAGA | -0.162 |
| ACCCCGGT | 0.00636 |
| CTGGAGCC | -0.305 |
| AATGGGGT | -0.0994 |
| GTTTGAGA | 0.111 |
| CAGTACCG | -0.0654 |
| TAAGCAAA | 0.136 |
| GCAACGGA | 0.226 |
| GAAAAATC | 0.191 |
| CTGTCTAC | -0.147 |
| GACGTTTA | 0.303 |
| AGGATGTA | 0.12 |
| ACTGGCCG | -0.111 |
| ATAGAAGC | -0.00506 |
| CGTAGAAC | 0.268 |
| AACTCACC | -0.105 |

| Sequence | PBM E-score |
| --- | --- |
| ACAATCTC | 0.0197 |
| AGCGGTAG | 0.0145 |
| CAGGGGGC | -0.107 |
| GCCCGCGA | 0.083 |
| GTCCTGGA | -0.225 |
| ACCTGTAT | -0.0452 |
| AAAATCGG | -0.0872 |
| GACGATGA | -0.0197 |
| CCGCGTTC | 0.181 |
| CGCGATGC | 0.193 |
| CTTCTCCA | -0.225 |
| AGTTCCCA | 0.0586 |
| AGGGTCCG | 0.0934 |
| ACAGGTGA | -0.231 |
| CATATCGG | -0.151 |
| TGTGTCAA | -0.0896 |
| CAGGACGC | -0.072 |
| CAAATATA | -0.0522 |
| ACTTCTCG | 0.256 |
| AACTCGTC | 0.102 |
| GGATTCGA | -0.188 |
| AAGTTGAG | 0.0476 |
